# Over roughly 2,900 compounds, “NF-kB SEAP reporter activity, fold change vs agonist alone” has its median near 0.99; the highest 2% begin near 2.6. The list shows a part of the results.
# Tests used:
# [1] = system: RAW-Dual; assay: NF-kB SEAP reporter activity, fold change vs agonist alone; higher = enhanced NF-kB activity; settings: cytotoxicity flag (confluency mask): not cytotoxic
# Method in brief: (§1)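 Supernatant from RAW-Dual macrophages was read after 20 hours for IRF by QuantiLuc luminescence and for NF-κB by QuantiBlue absorbance at 620 nm. The cells (50,000 cells/well in DMEM, 384-well plates, 37 °C, 5% CO2) had received 50 nL of library stock by pin tool and, 1 h later, a PRR agonist. Reporter activity is expressed relative to agonist-alone wells as fold change, and wells were flagged cytotoxic if IncuCyte confluency was under 70% of agonist controls in both mask sets.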
# [2] = system: RAW-Dual; assay: NF-kB SEAP reporter activity, fold change vs agonist alone; cytotoxicity flag (confluency mask): not cytotoxic; higher = enhanced NF-kB activity
# Method in brief: as §1
# [3] = library stock concentration (final ~1000-fold dilution): 2 mM, agonist: Imiquimod (TLR7) […]
# [4] = library stock concentration (final ~1000-fold dilution): 2 mM, agonist: MPLA (TLR4) […]
# [5] = agonist: ODN 1826 (TLR9) 0.5 ug/mL
# [6] = agonist: Pam2CSK4 (TLR2/6) 0.1 ug/mL
# [7] = agonist: Pam3CSK4 (TLR2/1) 0.1 ug/mL
# [8] = library stock concentration (final ~1000-fold dilution): 10 mM, agonist: Imiquimod (TLR7) […]
# [9] = library stock concentration (final ~1000-fold dilution): 10 mM, agonist: MPLA (TLR4) […]
smiles,measurement,setting,value
O=C1NC(=O)/C(=C/c2ccc3nccc(-c4ccncc4)c3c2)S1,NF-kB SEAP reporter activity,[1]; [3],0.734
same,NF-kB SEAP reporter activity,[1]; [4],1.12
O=C1NC(=O)/C(=C/c2ccc3nccc(-c4ccncc4)c3c2)S1 (library stock concentration (final ~1000-fold dilution): 2 mM),NF-kB SEAP reporter activity,[2]; agonist: LPS (TLR4) 0.1 ug/mL,0.993
same,NF-kB SEAP reporter activity,[2]; [5],0.863
same,NF-kB SEAP reporter activity,[2]; [6],0.5
same,NF-kB SEAP reporter activity,[2]; [7],0.581
CCCc1ncc(C[n+]2ccccc2C)c(N)n1 (library stock concentration (final ~1000-fold dilution): 10 mM water),NF-kB SEAP reporter activity,[2]; agonist: LPS (TLR4) 0.1 ug/mL,1.27
same,NF-kB SEAP reporter activity,[2]; [5],1.13
same,NF-kB SEAP reporter activity,[2]; [6],1.26
same,NF-kB SEAP reporter activity,[2]; [7],1.27
CCCc1ncc(C[n+]2ccccc2C)c(N)n1,NF-kB SEAP reporter activity,"[1]; library stock concentration (final ~1000-fold dilution): 10 mM water, agonist: Imiquimod (TLR7) […]",0.977
same,NF-kB SEAP reporter activity,"[1]; library stock concentration (final ~1000-fold dilution): 10 mM water, agonist: MPLA (TLR4) […]",0.961
C=C(CC)C(=O)c1ccc(OCC(=O)O)c(Cl)c1Cl (library stock concentration (final ~1000-fold dilution): 10 mM),NF-kB SEAP reporter activity,[2]; agonist: LPS (TLR4) 0.1 ug/mL,0.518
same,NF-kB SEAP reporter activity,[2]; [5],0.532
same,NF-kB SEAP reporter activity,[2]; [6],0.982
same,NF-kB SEAP reporter activity,[2]; [7],0.696
C=C(CC)C(=O)c1ccc(OCC(=O)O)c(Cl)c1Cl,NF-kB SEAP reporter activity,[1]; [8],0.993
same,NF-kB SEAP reporter activity,[1]; [9],0.86
CCc1c2c(nc3ccc(O)cc13)-c1cc3c(c(=O)n1C2)COC(=O)C3(O)CC (centres undefined) (library stock concentration (final ~1000-fold dilution): 10 mM),NF-kB SEAP reporter activity,[2]; agonist: LPS (TLR4) 0.1 ug/mL,2.16
same,NF-kB SEAP reporter activity,[2]; [5],1.39
same,NF-kB SEAP reporter activity,[2]; [6],0.867
same,NF-kB SEAP reporter activity,[2]; [7],0.98
CCc1c2c(nc3ccc(O)cc13)-c1cc3c(c(=O)n1C2)COC(=O)C3(O)CC (centres undefined),NF-kB SEAP reporter activity,[1]; [9],1.59
CCOCCn1c(C2CCN(CCc3ccc(C(C)(C)C(=O)O)cc3)CC2)nc2ccccc21,NF-kB SEAP reporter activity,[1]; [3],0.779
same,NF-kB SEAP reporter activity,[1]; [4],1.11
CCOCCn1c(C2CCN(CCc3ccc(C(C)(C)C(=O)O)cc3)CC2)nc2ccccc21 (library stock concentration (final ~1000-fold dilution): 2 mM),NF-kB SEAP reporter activity,[2]; agonist: LPS (TLR4) 0.1 ug/mL,1.24
same,NF-kB SEAP reporter activity,[2]; [5],1.08
same,NF-kB SEAP reporter activity,[2]; [6],1.08
same,NF-kB SEAP reporter activity,[2]; [7],1.08
COc1ccc2c3c1OC1CC(O)C=CC31CCN(C)C2 (centres undefined) (library stock concentration (final ~1000-fold dilution): 10 mM),NF-kB SEAP reporter activity,[2]; agonist: LPS (TLR4) 0.1 ug/mL,1.01
same,NF-kB SEAP reporter activity,[2]; [5],1.01
same,NF-kB SEAP reporter activity,[2]; [6],1.05
same,NF-kB SEAP reporter activity,[2]; [7],1.04
COc1ccc2c3c1OC1CC(O)C=CC31CCN(C)C2 (centres undefined),NF-kB SEAP reporter activity,[1]; [8],0.888
same,NF-kB SEAP reporter activity,[1]; [9],1.04
O=C(COc1cccc2c(=O)[nH]ccc12)c1ccccc1 (library stock concentration (final ~1000-fold dilution): 10 mM),NF-kB SEAP reporter activity,[2]; agonist: LPS (TLR4) 0.1 ug/mL,1.28
same,NF-kB SEAP reporter activity,[2]; [5],1.17
same,NF-kB SEAP reporter activity,[2]; [6],1.35
same,NF-kB SEAP reporter activity,[2]; [7],1.34
O=C(COc1cccc2c(=O)[nH]ccc12)c1ccccc1,NF-kB SEAP reporter activity,[1]; [8],1.11
same,NF-kB SEAP reporter activity,[1]; [9],1.1
CN(C)CC/C=C1/c2ccccc2COc2ccc(CC(=O)O)cc21.Cl,NF-kB SEAP reporter activity,[1]; [8],0.932
same,NF-kB SEAP reporter activity,[1]; [9],1
CN(C)CC/C=C1/c2ccccc2COc2ccc(CC(=O)O)cc21.Cl (library stock concentration (final ~1000-fold dilution): 10 mM),NF-kB SEAP reporter activity,[2]; agonist: LPS (TLR4) 0.1 ug/mL,0.935
same,NF-kB SEAP reporter activity,[2]; [5],1.01
same,NF-kB SEAP reporter activity,[2]; [6],0.975
same,NF-kB SEAP reporter activity,[2]; [7],1.16
CCCCCCOC(=O)c1cc(O)c(=O)c2c(O)c(O)c(OC)cc2c1,NF-kB SEAP reporter activity,[1]; [8],1.2
same,NF-kB SEAP reporter activity,[1]; [9],0.857
